Results taken from PubChem BioAssay (Tox21).
Values joined by “and” are separate entries in the source; they are usually repeats but may differ in a detail not shown here. Equal values may be shown once. The shares of active, inactive and inconclusive entries below differ from those in the screen. A potency beside an inconclusive call is a rough fit, not a confirmed value. Where a structure was tested more than once in an assay, its records may differ in their call. Active and inactive are the calls of the source. Unless noted, the call rests on the fitted dose curve; in most records, active means well fitted curve in the direction sought with a large enough effect in the repeat runs; inconclusive means weak or mixed curves; inactive means no such curve, though single readings can be large; an effect the other way counts as inactive or inconclusive.

Legend:
[1] = qHTS assay to identify small molecule antagonists of the estrogen related receptor (ERR) signaling pathway from Tox21 library - cell viability counter screen (AID 1224834); further: nearly all actives have a fitted effect of over 30% in size
Summary of the method: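 Counter screen run in ERR cells (2,000 cells/well): cells pre-incubated 6 h, then treated with compounds for 17.5 h at 37 C. Fluorescence was read 30 min after CellTiter-Fluor addition.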

[2] = qHTS assay to identify small molecule agonists of the constitutive androstane receptor (CAR) signaling pathway - cell viability counter screen (AID 1224836); further: nearly all actives have a fitted effect of over 45% in size
Summary of the method: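 Using CellTiter-Fluor, viability of HepG2 cells harbouring hCAR and CYP2B6-2.2kb was measured following 23 h incubation with a 15-concentration compound series plus PK11195 (0.75 uM final).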

[3] = qHTS assay to identify small molecule antagonists of the constitutive androstane receptor (CAR) signaling pathway - cell viability counter screen (AID 1224837); further: nearly all actives have a fitted effect of over 45% in size
Summary of the method: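 CITCO at 50 nM final was added alongside compounds (15 concentrations) to double-stable hCAR/CYP2B6-2.2kb HepG2 cells. Following 23 hr at 37 C, cell viability was quantified by CellTiter-Fluor fluorescence intensity.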

[4] = target: Nuclear receptor subfamily 1 group I member 3 (Homo sapiens) (UniProt Q14994); test: qHTS assay to identify small molecule antagonists of the constitutive androstane receptor (CAR) signaling pathway (AID 1224838); further: nearly all actives have a fitted effect of over 40% in size
Chain of UniProt Q14994 (Q14994 whole entry, looked up): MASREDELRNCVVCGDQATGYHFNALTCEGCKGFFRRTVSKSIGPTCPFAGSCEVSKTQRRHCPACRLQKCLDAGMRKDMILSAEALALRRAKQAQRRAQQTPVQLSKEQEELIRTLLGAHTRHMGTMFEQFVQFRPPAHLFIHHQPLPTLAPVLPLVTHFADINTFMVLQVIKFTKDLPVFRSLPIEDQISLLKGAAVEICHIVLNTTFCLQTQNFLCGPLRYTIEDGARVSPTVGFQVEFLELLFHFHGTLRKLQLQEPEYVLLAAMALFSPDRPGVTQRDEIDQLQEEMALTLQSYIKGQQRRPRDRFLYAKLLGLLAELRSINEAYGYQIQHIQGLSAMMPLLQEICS
Summary of the method: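 Inhibition of CITCO-driven (50 nM final) CYP2B6 reporter expression is measured in HepG2 cells stably carrying hCAR. Fifteen compound concentrations are applied for 24 h at 37 C, followed by luciferase luminescence.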

[5] = qHTS assay to identify small molecule antagonists of the estrogen related receptor signaling pathway with the pleiotropic PPARgamma coactivator (PGC) from Tox21 10K library (AID 1224841; call rule not given here; further: actives are mostly falling curves and most rising ones were filed inactive; nearly all actives have a fitted effect of over 50% in size)
Summary of the method: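 One-Glo luminescence, measured after half an hour at room temperature, quantified reporter output of PGC/ERR cells. These had been plated at 2,000 per well, incubated 6 h, dosed with compounds in DMSO, then kept 18 h at 37 C.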

[6] = target: Thyrotropin receptor (Homo sapiens) (UniProt P16473); test: qHTS assay to identify small molecule agonists of the thyroid stimulating hormone receptor (TSHR) signaling pathway (AID 1224843; calls by dose curve; further: nearly all actives have a fitted effect of over 45% in size; on activation: on the % scale 0 is the no-effect control and ±100 the full control effect); settings: TSHR-HEK293 cells, cAMP HTRF, agonist mode, 30 min
Chain of UniProt P16473 (P16473 whole entry, looked up): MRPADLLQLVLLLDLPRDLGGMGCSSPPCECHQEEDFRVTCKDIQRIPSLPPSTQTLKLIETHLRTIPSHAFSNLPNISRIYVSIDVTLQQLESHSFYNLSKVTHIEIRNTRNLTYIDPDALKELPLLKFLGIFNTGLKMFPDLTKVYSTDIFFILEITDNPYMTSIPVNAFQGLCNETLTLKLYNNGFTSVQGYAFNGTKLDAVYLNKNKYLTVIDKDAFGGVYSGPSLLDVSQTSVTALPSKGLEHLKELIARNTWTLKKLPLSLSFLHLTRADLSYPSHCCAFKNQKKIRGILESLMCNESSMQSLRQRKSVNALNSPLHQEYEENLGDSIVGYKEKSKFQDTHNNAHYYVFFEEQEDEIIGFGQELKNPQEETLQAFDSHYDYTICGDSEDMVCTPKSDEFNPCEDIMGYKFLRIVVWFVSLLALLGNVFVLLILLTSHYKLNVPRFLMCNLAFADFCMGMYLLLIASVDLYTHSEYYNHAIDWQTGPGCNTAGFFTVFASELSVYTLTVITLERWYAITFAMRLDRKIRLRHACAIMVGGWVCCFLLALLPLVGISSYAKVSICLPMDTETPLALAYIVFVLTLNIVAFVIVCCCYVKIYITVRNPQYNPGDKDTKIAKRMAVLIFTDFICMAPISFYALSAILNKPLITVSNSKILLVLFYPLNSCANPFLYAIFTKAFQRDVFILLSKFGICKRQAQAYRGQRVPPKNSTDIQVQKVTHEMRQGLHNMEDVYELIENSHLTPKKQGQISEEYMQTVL
Summary of the method: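 A cell-based cAMP HTRF format was run in TSHR-transfected HEK293 cells, 800 per well. Treatment: 30 min, room temperature. Detection: 1 h with labelled cAMP and anti-cAMP cryptate. Concentration-response over 15 points, three replicates.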

[7] = qHTS assay to identify small molecule agonists of the hypoxia (HIF-1) signaling pathway - cell viability counter screen (AID 1224844; calls by dose curve; further: nearly all actives have a fitted effect of over 50% in size)
Summary of the method: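 In this counter screen, HRE-bla ME-180 cell viability after 17 hrs of compound exposure at 37C was read by CellTiter-Glo luminescence, multiplexed with the beta-lactamase reporter measurement.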

[8] = qHTS assay to identify small molecule agonists of H2AX (AID 1224845; active means well fitted activation curve with a large enough effect in the signal ratio in the repeat runs, not every such curve was filed as active; inconclusive means weak or mixed curves; the % refers to the signal ratio; on activation (H2AX phosphorylation): on the % scale 0 is the no-effect control and ±100 the full control effect); settings: CHO-K1 phospho-H2AX Ser139 HTRF, 3 h; activation (H2AX phosphorylation): at 154 µM (top of the series) unless noted
Summary of the method: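 Phospho-H2AX Ser139 measured by HTRF (ex 320 nm; em 665 and 620 nm) after 24 hr antibody incubation. Compounds, 15 concentrations, 0.76% DMSO, were applied to CHO-K1 cells for 3hr at 37C before lysis.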

[9] = qHTS assay to identify small molecule agonists of H2AX - cell viability counter screen (AID 1224847; calls by dose curve; further: nearly all actives have a fitted effect of over 30% in size)
Summary of the method: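 Quantitative HTS viability measurement: CHO-K1 wild-type cells in serum (10% FBS) medium, short 3 hr drug exposure at 37C with 0.76% DMSO, CellTiter-Glo luminescent detection.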

[10] = qHTS RealTime-Glo MT Cell Viability Assay in HepG2 cells - 24 hour (AID 1224867); further: nearly all actives have a fitted effect of over 50% in size
Summary of the method: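 qHTS, HepG2, 600 cells/well, RealTime-Glo (NanoLuc + prosubstrate) added with cells; 5 h preincubation; DMSO compound addition; 37 C; luminescence at 0/8/16/24/32/40 h.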

[11] = target: Luciferin 4-monooxygenase (Photinus pyralis) (UniProt P08659); test: qHTS assay to identify small molecule inhibitors of firefly luciferase (AID 1224835); further: nearly all actives have a fitted effect of over 25% in size
Chain of UniProt P08659 (P08659 whole entry, looked up): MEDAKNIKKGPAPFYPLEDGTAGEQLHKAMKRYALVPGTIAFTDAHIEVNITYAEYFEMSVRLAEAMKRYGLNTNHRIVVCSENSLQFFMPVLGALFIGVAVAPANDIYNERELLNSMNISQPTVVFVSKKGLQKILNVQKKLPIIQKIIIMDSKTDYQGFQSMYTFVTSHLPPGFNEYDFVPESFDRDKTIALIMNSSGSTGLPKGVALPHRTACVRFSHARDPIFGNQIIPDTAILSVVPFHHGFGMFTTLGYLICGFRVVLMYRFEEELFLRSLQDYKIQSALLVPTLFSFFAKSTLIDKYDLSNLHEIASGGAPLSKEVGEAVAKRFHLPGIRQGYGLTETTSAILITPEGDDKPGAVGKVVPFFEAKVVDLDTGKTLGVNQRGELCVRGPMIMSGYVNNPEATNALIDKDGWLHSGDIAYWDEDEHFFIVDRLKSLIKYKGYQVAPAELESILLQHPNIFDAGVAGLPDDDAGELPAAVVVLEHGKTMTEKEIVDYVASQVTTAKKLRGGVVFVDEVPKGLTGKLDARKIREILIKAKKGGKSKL
Summary of the method: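 Inhibition of purified Photinus luciferase is measured by luminescence. Substrate levels (D-luciferin, ATP) sit at their KM values. Each compound is tested in a concentration series.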

[12] = qHTS assay to identify small molecule antagonists of the estrogen related receptor (ERR) signaling pathway from Tox21 library (AID 1224848); further: nearly all actives have a fitted effect of over 50% in size
Summary of the method: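 ERR cell line, 2,000 cells/well. 6 h settle, then compound (DMSO) added; 18 h at 37 C; ONE-Glo luminescence after 30 min RT.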

[13] = qHTS assay to identify small molecule agonists of the hypoxia (HIF-1) signaling pathway (AID 1224846; active means well fitted activation curve with a large enough effect in the signal ratio in the repeat runs, not every such curve was filed as active; inconclusive means weak or mixed curves; the % refers to the signal ratio); settings: HRE-bla ME-180 cells, beta-lactamase ratio, 17 h; activation: at 76.8 µM (top of the series) unless noted
Summary of the method: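 ME-180 HRE-bla reporter cells; compounds in DMSO, 17 h at 37C; read-out beta-lactamase via CCF4-AM FRET.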

[14] = qHTS RealTime-Glo MT Cell Viability Assay in HEK293 cells - 32 hour (AID 1224868); further: nearly all actives have a fitted effect of over 50% in size
Summary of the method: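 Assay medium contained NanoLuc luciferase plus cell-permeant prosubstrate, added with HEK293 cells at 600 cells/well. After 5 h at 37 C/5% CO2 compounds were added; plates stayed at 37 C for 40 h with serial luminescence reads.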

[15] = qHTS assay to identify small molecule antagonists of the estrogen related receptor signaling pathway with the pleiotropic PPARgamma coactivator (PGC) from Tox21 10K library - cell viability counter screen (AID 1224840; active means well fitted cell-killing curve with a large enough effect in the repeat runs, not every such curve was filed as active; inconclusive means weak or mixed curves, or effect the other way; inactive means no such curve, though single readings can be large or run the other way; further: nearly all actives have a fitted effect of over 40% in size)
Summary of the method: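 Readout: fluorescence intensity from CellTiter-Fluor after 30 min at 37 C/5% CO2. Preceded by 17.5 h treatment of PGC/ERR cells with DMSO-dissolved compounds, added 6 h post-seeding.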

[16] = activation: at 92.4 µM (top of the series) unless noted
Potency means the concentration at half of the fitted maximal effect; tags describe the fitted curve by direction and shape or compound fluorescence and quenching.

CCOC(=O)c1nc(C(Cl)(Cl)Cl)n(-c2ccc(Cl)cc2Cl)n1
inconclusive: Potency [1] 77 µM [cytotoxic, single point] | Potency [2] 54.5 µM [cytotoxic, partial curve] | Potency [3] 61.1 µM [cytotoxic, single point] | Potency [4] 27.3 µM [inhibitor, partial curve] | Potency [5] 68.6 µM [falling, single point] | activation [6, 16] -2.9% | Potency [7] 54.9 µM [cytotoxic, single point] | activation (H2AX phosphorylation) [8] 8.39% | Potency [9] 127 µM [cytotoxic, single point] | Potency [10] 54.9 µM [falling, single point]

CCCCCCc1ccc(N)cc1
inconclusive: Potency [1] 24.3 µM [cytotoxic, partial curve] | Potency [11] 56.4 µM [inhibitor, partial curve] | Potency [8] 56.6 µM [rising, partial curve] | Potency [9] 50.5 µM [cytotoxic, partial curve] | Potency [12] 9.69 µM [inhibitor, full curve]

CCN(CC)c1ccc(C(=C2C=CC(=[N+](CC)CC)C=C2)c2ccc(S(=O)(=O)O)cc2S(=O)(=O)[O-])cc1
active: Potency [1] 21.7 µM | Potency [2] 24.3 µM | Potency [7] 8.71 µM | Potency [12] 9.69 µM
inconclusive: Potency [6, 16] 3.06 µM [falling, full curve] | Potency [8] 3.57 µM [cytotoxic, full curve]

Nc1nc2ccccc2n1Cc1ccc(F)cc1
inconclusive: Potency [1] 26.6 µM [cytotoxic, partial curve] | Potency [2] 13.3 µM [cytotoxic, partial curve] | Potency [3] 26.6 µM [cytotoxic, partial curve] | Potency [7] 9.52 µM [cytotoxic, partial curve] | Potency [13] 16.9 µM [falling, partial curve] | Potency [12] 5.96 µM [inhibitor, full curve] | Potency [14] 6.74 µM [cytotoxic, partial curve]

NCCNc1cccc2ccccc12
inconclusive: Potency [1] 59.6 µM [cytotoxic, single point] | Potency [2] 68.5 µM [cytotoxic] and 59.6 µM [cytotoxic, single point] | Potency [3] 68.5 µM [cytotoxic, single point] and 66.9 µM [cytotoxic, single point] | Potency [4] 76.9 µM [inhibitor, single point] and 75.1 µM [inhibitor, single point] | Potency [15] 68.5 µM [cytotoxic] | Potency [6, 16] 54.4 µM [falling, partial curve] | activation ([6]; at 42.5 µM (top of the series)) 4.39% | activation ([6]; at 92.4 µM (top of the series)) 12.8% | Potency [7] 0.19 µM [rising, single point] | Potency [8] 113 µM [falling, single point] | Potency [10] 54.9 µM [falling, single point] and 53.6 µM [falling, single point]

C/C=C(\C)C(=O)OCc1ccccc1
inactive: Potency [1] | Potency [2]

CCN(CC)C(=O)c1cc(S(=O)(=O)Cc2ccccc2)c(N2CCC(c3ccccc3)CC2)cc1N(CC)CCN(C)C
inconclusive: Potency [4] 24.1 µM [inhibitor, single point] | Potency [5] 24.1 µM [single point] | activation [6, 16] -41.2% [at 42.5 µM] | Potency [8] 31.5 µM [activator, partial curve, poor fit]
active: Potency [1] 19.1 µM | Potency [2] 21.4 µM | Potency [3] 24.1 µM | Potency [15] 21.4 µM | Potency [7] 10.8 µM | Potency [10] 17.2 µM

CN(C)[C@@H](CCOc1cccc2ccccc12)c1ccccc1
active: Potency [6, 16] 33.5 µM
inconclusive: Potency [1] 33.5 µM [cytotoxic, single point] | Potency [2] 29.8 µM [cytotoxic, partial curve, poor fit] | Potency [7] 16.9 µM [cytotoxic, partial curve, poor fit] | activation (H2AX phosphorylation) [8] 11.6% [at 70.9 µM] | Potency [9] 55.2 µM [cytotoxic, single point] | Potency [12] 33.5 µM [inhibitor] | Potency [10] 26.8 µM [falling, single point] | Potency [14] 23.9 µM [cytotoxic, single point]

C/C=C1/C(=O)C[C@H]2[C@@H]3CCC4=CC(=O)CC[C@]4(C)[C@H]3CC[C@]12C
inactive: Potency [7]
inconclusive: Potency [2] 68.4 µM [cytotoxic, partial curve, poor fit] | Potency [3] 68.4 µM [cytotoxic, partial curve, poor fit] | Potency [15] 60.9 µM [cytotoxic, partial curve] | Potency [10] 48.8 µM [falling, partial curve, poor fit]
active: Potency [1] 60.9 µM
